Structures can show the parent of a compound that is named as a salt. ± gives the standard deviation of the averaged measurements. In all, about 2,600 compounds were measured (“MBP+ mature oligodendrocyte number relative to DMSO vehicle control”: median about -0.34, highest 2% from about 13 on). The list shows a part of the results.
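Note: 10 µM single dose with 3-day oligodendrocyte differentiation.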

In this assay the test system is jimpy (Plp1 jimpy) mouse iPSC-derived oligodendrocyte progenitor cells. Kind of assay: MBP+ mature oligodendrocyte number relative to DMSO vehicle control (SDs above negative control mean); higher = more surviving jimpy oligodendrocytes (rescue). To be noted: 10 µM; 3 days.
With `Nc1ncnc2c1c(-c1cnc3[nH]ccc3c1)nn2C1CCCC1`, the “MBP+ mature oligodendrocyte number” value was under -6.01. The value for `COc1cc(OC)cc(-c2cc3cnc(N)nc3nc2NC(=O)NC(C)(C)C)c1` was -2.43; that for `COc1ccc2cc1Oc1ccc(cc1)C[C@H]1c3cc(c(OC)cc3CCN1C)Oc1c(OC)c(OC)cc3c1[C@H](C2)N(C)CC3` [Tetrandrine] was under -4.81.

`CC(=O)OCC(=O)[C@@]12N=C(C)O[C@@H]1C[C@H]1[C@@H]3CCC4=CC(=O)C=C[C@]4(C)[C@H]3[C@@H](O)C[C@@]12C` [Deflazacort]: the “MBP+ mature oligodendrocyte number” value was 5.29. `N=C(N)NCCC[C@H](N)C(=O)O` [L-Arginine]: the “MBP+ mature oligodendrocyte number” value was -1.06. In the case of `Cc1nc2n(c(=O)c1CCN1CCC(c3noc4cc(F)ccc34)CC1)CCCC2` [Risperidone], the “MBP+ mature oligodendrocyte number” value was -0.287. `CNCCC(Oc1ccc(C(F)(F)F)cc1)c1ccccc1` (configuration not stated) [Fluoxetine hydrochloride]: the “MBP+ mature oligodendrocyte number” value was under -4.47. The value for `CNCCC(Oc1ccc(C(F)(F)F)cc1)c1ccccc1` (configuration not stated) [Fluoxetine HCl] was under -6.7; that for `C[C@@H](CN1CC(=O)NC(=O)C1)N1CC(=O)NC(=O)C1` [Dexrazoxane HCl (ICRF-187, ADR-529)] was -3.56; that for `CCC(=O)O[C@]1(C(=O)CCl)[C@@H](C)C[C@H]2[C@@H]3C[C@H](F)C4=CC(=O)C=C[C@]4(C)[C@@]3(F)[C@@H](O)C[C@@]21C` [Halobetasol Propionate] was 21.4. The value for `CC(=O)N[C@H]1[C@H]([C@H](O)[C@H](O)CO)OC(C(=O)O)=C[C@@H]1NC(=N)N` [Zanamivir] was 0.985 ± 1.6; that for `CCN1CC(CCN2CCOCC2)C(c2ccccc2)(c2ccccc2)C1=O` (configuration not stated) [Doxapram HCl] was 5.14; that for `CN(C)Cc1cccc(N/C(=C2\C(=O)Nc3cc(C(N)=O)ccc32)c2ccccc2)c1` was -5.06.

In the case of `CCCCNC(=O)NS(=O)(=O)c1ccc(C)cc1` [Tolbutamide], the “MBP+ mature oligodendrocyte number” value stood at 0.39 ± 0.24.

In the case of `C[C@@H]1O[C@@H](O[C@H]2[C@H](Oc3cc(O)c(C(=O)CCc4ccc(O)cc4)c(O)c3)O[C@H](CO)[C@@H](O)[C@@H]2O)[C@H](O)[C@H](O)[C@H]1O` [Naringin Dihydrochalcone], the “MBP+ mature oligodendrocyte number” value was 0.451. For `CCOC(=O)OC(C)OC1=C(C(=O)Nc2ccccn2)N(C)S(=O)(=O)c2ccccc21` (configuration not stated) [Ampiroxicam] the value was -1.09. For `O=C(Nc1c(Cl)cncc1Cl)c1ccc(OC(F)F)c(OCC2CC2)c1` [Roflumilast], the “MBP+ mature oligodendrocyte number” value is 0.395. With `CCCS(=O)(=O)Nc1ccc(F)c(C(=O)c2c[nH]c3ncc(-c4ccc(Cl)cc4)cc23)c1F` [Vemurafenib (PLX4032, RG7204)], the “MBP+ mature oligodendrocyte number” value came out at 8.05.

As for `CCCCCCCCCCC/C=C\C(C)(C)/C=C\CCCC(=O)O` [7,7-Dimethyl-(5Z,8Z)-eicosadienoic acid], the “MBP+ mature oligodendrocyte number” value was -0.962. Take `O=S(=O)(O)CCS` [Mesna]: the “MBP+ mature oligodendrocyte number” value is -1.1. For `CN(C)C1CCN(C(=O)c2ccc(NC(=O)Nc3ccc(-c4nc(N5CCOCC5)nc(N5CCOCC5)n4)cc3)cc2)CC1` the value was under -6.01; for `C[C@H](c1ccc(F)cc1CCCC(=O)O)N(c1cc(F)ccc1F)S(=O)(=O)c1ccc(Cl)cc1`, -0.961. On to `CC(=O)OCC[N+](C)(C)C` [Acetylcholine Chloride], for which the “MBP+ mature oligodendrocyte number” value amounted to 1.51. Consider `CC1(C)CCC2=C(O1)c1ccccc1C(=O)C2=O` [beta-Lapachone], for which the “MBP+ mature oligodendrocyte number” value was under -3.97.

On to `CC1(C)CCC2=C(O1)c1ccccc1C(=O)C2=O` [Beta-Lapachone], for which the “MBP+ mature oligodendrocyte number” value is -6.18. For `OCCN1C[C@H](O)[C@@H](O)[C@H](O)[C@H]1CO` [Miglitol] the value was -0.332; for `S=C(NCc1ccc2c(c1)OCO2)N1CCN(c2ncnc3c2oc2ccccc23)CC1` [Amuvatinib (MP-470)], under -6.7. For `CC(=O)Oc1cc2c(s1)CCN(C(C(=O)C1CC1)c1ccccc1F)C2` (configuration not stated) [Prasugrel] the value was 2.81; for `Cn1cnc([N+](=O)[O-])c1Sc1ncnc2[nH]cnc12` [Azathioprine], -1.9 ± 1.3.

Regarding `CC(C)C(=O)Nc1ccc([N+](=O)[O-])c(C(F)(F)F)c1` [Flutamide], the “MBP+ mature oligodendrocyte number” value was 2.04 ± 0.024. As for `O=C(O)CCCC[C@@H]1SC[C@@H]2NC(=O)N[C@@H]21` [Biotin (Vitamin B7)], the “MBP+ mature oligodendrocyte number” value was 2.17.

`CCOC(=O)Nc1ccc(NCc2ccc(F)cc2)nc1N` [Flupirtine maleate]: the “MBP+ mature oligodendrocyte number” value is 4.11 ± 3.1. For `CC1COc2c(N3CCN(C)CC3)c(F)cc3c(=O)c(C(=O)O)cn1c23` (configuration not stated) [Ofloxacin] the value was 0.539; for `O=C(O)/C=C/c1cnc[nH]1` [4-Imidazoleacrylic acid], 0.896. Turning to `C[C@H](CCC(=O)O)[C@H]1CC[C@H]2[C@@H]3CC[C@@H]4C[C@H](O)CC[C@]4(C)[C@H]3CC[C@]12C` [Lithocholic acid], the “MBP+ mature oligodendrocyte number” value came out at 0.422. The value for `CC(=O)SCC(Cc1ccccc1)C(=O)NCC(=O)OCc1ccccc1` (configuration not stated) [Racecadotril] was 0.787; that for `COC(=O)C1=C(C)NC(C)=C(C(=O)OC(C)C)C1c1cccc2nonc12` (configuration not stated) [Isradipine] was 6.28; that for `Cn1c(Nc2ccc(C(F)(F)F)cc2)nc2cc(Oc3ccnc(-c4ncc(C(F)(F)F)[nH]4)c3)ccc21` was -4.47. For `CCOC(=O)[C@H](CCc1ccccc1)N[C@@H](C)C(=O)N1Cc2cc(OC)c(OC)cc2C[C@H]1C(=O)O` [Moexipril HCl], the “MBP+ mature oligodendrocyte number” value was -1.55. For `C/C=C1\[C@H]2C=C(C)C[C@]1(N)c1ccc(=O)[nH]c1C2` [(-)-Huperzine A (HupA)] the value was 0.619; for `CN1CCN(C2CCN(C(=O)Nc3cc(Oc4ccc(NC(=O)C5(C(=O)Nc6ccc(F)cc6)CC5)c(F)c4)ccn3)CC2)CC1` [Golvatinib (E7050)], under -6.01.

For the compound `C[N+](C)(C)CCO.[Cl-]` [Choline Chloride], the “MBP+ mature oligodendrocyte number” value is 2.94.

As to `Nc1ccc2c3c(cccc13)C(=O)NC2=O` [4-Amino-1,8-naphthalimide], the “MBP+ mature oligodendrocyte number” value was -0.511. Regarding `Clc1ccc(Nc2nnc(Cc3ccncc3)c3ccccc23)cc1` [Vatalanib (PTK787) 2HCl], the “MBP+ mature oligodendrocyte number” value is -5.48. For `Cn1cc(-c2ccc3nnc(Sc4ccc5ncccc5c4)n3n2)cn1` the value was -0.676. For `O=C1NC(=O)/C(=C/c2cccc(C(F)(F)F)c2)S1` the value was 1.05. For `Cc1cc(O)c2c(c1)C(=O)c1cc(O)cc(O)c1C2=O` [Emodin] the value was 1.76 ± 0.45. For `CN(C/C=C/C#CC(C)(C)C)Cc1cccc2ccccc12` [Terbinafine HCl], the “MBP+ mature oligodendrocyte number” value stood at 4.54. For `CN(C/C=C/C#CC(C)(C)C)Cc1cccc2ccccc12` [Terbinafine] the value was 1.87; for `O=c1[nH]cnc2c1ncn2[C@H]1CC[C@@H](CO)O1` [Didanosine], 0.793.

`Fc1ccc([C@@H]2CCNC[C@H]2COc2ccc3c(c2)OCO3)cc1` [Paroxetine HCl]: the “MBP+ mature oligodendrocyte number” value is -5.77. With `Fc1ccc([C@@H]2CCNC[C@H]2COc2ccc3c(c2)OCO3)cc1` [Paroxetine hydrochloride hemihydrate (MW = 374.83)], the “MBP+ mature oligodendrocyte number” value was under -3.34. In the case of `Nc1nc(O)c2ncn(CCC(CO)CO)c2n1` [Penciclovir], the “MBP+ mature oligodendrocyte number” value came out at 3.36.

As to `NC(CO)C(=O)NNCc1ccc(O)c(O)c1O` (configuration not stated) [Benserazide hydrochloride], the “MBP+ mature oligodendrocyte number” value was 0.392. As for `NC(CO)C(=O)NNCc1ccc(O)c(O)c1O` (configuration not stated) [Benserazide HCl], the “MBP+ mature oligodendrocyte number” value was found to be 0.395. For the compound `CN(C)CCCN1c2ccccc2CCc2ccccc21` [Imipramine hydrochloride], the “MBP+ mature oligodendrocyte number” value is -1.73. The value for `C[C@H]1COc2c(N3CCN(C)CC3)c(F)cc3c(=O)c(C(=O)O)cn1c23` [Levofloxacin] was 3.76; that for `CCCC(=O)OCOC(=O)C1=C(C)NC(C)=C(C(=O)OC)C1c1cccc(Cl)c1Cl` (configuration not stated) [Clevidipine Butyrate] was -0.737; that for `CC(C)CN(C[C@@H](O)[C@H](Cc1ccccc1)NC(=O)O[C@H]1CO[C@H]2OCC[C@H]21)S(=O)(=O)c1ccc(N)cc1` [Darunavir Ethanolate] was 2.59. For `O=C(O)CSCC(=O)NC1CCSC1=O` (configuration not stated) [Erdosteine] the value was 1.6; for `Cc1cc2c(F)c(Oc3ncnn4cc(OC[C@@H](C)O)c(C)c34)ccc2[nH]1`, -1.37; for `O=C1C(SCCO)=C(SCCO)C(=O)c2ccccc21`, -1.17. The value for `COc1cc(/C=C/C(=O)CC(=O)/C=C/c2ccc(O)c(OC)c2)ccc1O` [Curcumin] was -5.06; that for `Cc1nc2n(c(=O)c1CCN1CCC(c3noc4cc(F)ccc34)CC1)CCCC2O` (configuration not stated) [Paliperidone] was 0.555. As to `CC(=O)OCC1=C(C(=O)O)N2C(=O)[C@@H](NC(=O)Cc3cccs3)[C@H]2SC1` [Cephalothin sodium], the “MBP+ mature oligodendrocyte number” value was -0.119.

For `C=CCn1c(=O)c2cnc(Nc3ccc(N4CCN(C)CC4)cc3)nc2n1-c1cccc(C(C)(C)O)n1`, the “MBP+ mature oligodendrocyte number” value was under -5.15.

Take `Clc1ccc(C(Cn2ccnc2)OCc2csc3c(Cl)cccc23)c(Cl)c1` (configuration not stated) [Sertaconazole nitrate]: the “MBP+ mature oligodendrocyte number” value is -3.39. The value for `O=C(Nc1cccc2cccnc12)c1ccc(N2C(=O)[C@@H]3[C@H](C2=O)[C@@H]2C=C[C@H]3C2)cc1` [IWR-1-endo] was -3.56. On to `CC1(C)S[C@@H]2[C@H](NC(=O)Cc3ccccc3)C(=O)N2[C@H]1C(=O)O` [Penicillin G Sodium], for which the “MBP+ mature oligodendrocyte number” value is 1.67. The value for `CCCCc1nc(Cl)c(CO)n1Cc1ccc(-c2ccccc2-c2nnn[nH]2)cc1` [Losartan Potassium (DuP 753)] was 1.59; that for `c1cn2cc(-c3ccc4cn[nH]c4c3)nc(Nc3ccc(N4CCOCC4)cc3)c2n1` was -1.1; that for `O=C1OC(CN2CCOCC2)CN1/N=C/c1ccc([N+](=O)[O-])o1` (configuration not stated) [Furaltadone HCl] was -1.2. With `O=C1c2c(O)cc(O)cc2O[C@H](c2cc(O)c(O)c(O)c2)[C@H]1O` [Dihydromyricetin], the “MBP+ mature oligodendrocyte number” value stood at 1.91. The value for `Cc1ccc(-c2c(-c3nn(C)c4ncnc(N5CC[C@H](N6CCCCC6)C5)c34)cnn2C)cc1` was 0.342. For `CNCCCN1c2ccccc2CCc2ccccc21` [Desipramine hydrochloride] the value was -4.21; for `CCOc1cc(N)c(Cl)cc1C(=O)NCC1CN(Cc2ccc(F)cc2)CCO1` (configuration not stated) [Mosapride Citrate], 23. For the compound `Cc1cccc(Nc2ccccc2C(=O)O)c1C` [Mefenamic Acid], the “MBP+ mature oligodendrocyte number” value turned out to be 0.407.

Source of the values: the supplement of paper PMC6135742.
